# Data published in the RNAGym collection of RNA variant scans (doi:10.1093/nar/gkz1192).
# Read counts are not given, so values of variants with three or more changes are uncertain.
# B1: CPEB3 Ribozyme (parent)
# chain: UAACAGGGGGCCACAGCAGAAGCGUUCACGUCGCAGCCCCUGUCAGAUUCUGGUGAAUCUGCGAAUUCUGCUGUAUAUCUC
# Variants of: B1
# Experiment: self-cleavage, relative activity (ratio to wild type); higher = more cleavage; in vitro, sequencing
# Outline: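 CPEB3 self-cleaving ribozyme mutant libraries were made by rounds of error-prone PCR, barcoded, and transcribed in vitro with T7 RNA polymerase for 5 hours at 37°C. Cleavage occurred during transcription and a 15 min DNase I step before EDTA stop. RNAs were reverse transcribed with template switching and Illumina-sequenced, with DNA sequencing mapping barcodes to variants. Relative activity is the variant's cleaved/total read fraction divided by wild type's (minimum 5 reads), averaged across three batches.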
row,Variant,self-cleavage
1,C4U C11U G16A C17U A35G U60C U78G,0.09
2,C4U C37G G63A A65G,0.39
3,C4U G6U A35U U49C A75C U78C,0.08
4,C4U G7U C29U A45U,0.13
5,C4U G8A A18U A35G,0.13
6,C4U G10A A47G A56G U78C,0.23
7,C4U G16A U31C A35G U58A G73A,0.57
8,C4U G30A A35G A57G U66C U76A,0.12
9,C4U G33A A35G,0.91
10,C4U U25C C29U A45G,0.28
11,C4U U25C C29U A45G U54A U78C,0.31
12,C4U U25G C32G U69A U78C,0.09
13,C4U U26A C34G,0.57
14,C4U U26C A64G U78C,0.28
15,C4U U31A A56G U80C C81A,1.05
16,C4U U31C A45G U51G,0.48
17,C4U U43C A77G,0.63
18,C4U U49A U54C,0.68
19,C4U U54C A57U,0.42
20,C4U U60A U74A,1.17
21,A5C A13G A20G C38U U43C U72C U78C,0.18
22,A5C A13G A21G A28U C37A U67C,0.09
23,A5C A13G A45G,0.81
24,A5C A13G C38A U43C U72C,0.47

row,Variant,self-cleavage
1,A5C A13G U25C A56G,0.07
2,A5C A13G U25C C39U A45U A47G U80C,0.09
3,A5C A13G U60C A64G,0.43
4,A5C A15G U25C U26A C44U U48C A64G,0.05
5,A5C A15G U49G U51C A57G A75G,0.17
6,A5C A18C U26C A35G U51A,0.61
7,A5C A18G C29G U67C,0.15
8,A5C A18U A28C U51A,0.11
9,A5C A18U A35C G42A U78C,0.06
10,A5C A18U U80A,0.67
11,A5C A20G U31C A65G,0.16
12,A5C A20G U66C U67C,0.79
13,A5C A21G A57G,0.6
14,A5C A21G U25C U31A A35U U60C U69G,0.04
15,A5C A28G C62U A64G U78A,0.14
16,A5C A28G U48C C50G U67C U72A,0.11
17,A5C A28G U60C A64G,0.35
18,A5C A35G A45G A64G U72C,1.25
19,A5C A35G U43C U51C A65U,0.22
20,A5C A47G U51C A64G U72A,0.27
21,A5C A56G U60C A77G,0.28
22,A5C A57G A64U C68U U69A U72C,0.31
23,A5C A57G U58G U66G,0.1
24,A5C C11G A13G U26C C44A A45U G55A,0.09

row,Variant,self-cleavage
1,A5C C11U A20G C62U,0.33
2,A5C C12A A64G,1.02
3,A5C C17U G30A A35G A47G U67A C71U,0.05
4,A5C C17U U31C U48C U54C U74C A75G,0.12
5,A5C C29G A45G,0.39
6,A5C C29G A57G U66C U72A,0.1
7,A5C C29G C40U U80C,0.16
8,A5C C29U G61A U69A U78A,0.09
9,A5C C38A U43C A45C U72A U80C,0.05
10,A5C C40U U51A,0.56
11,A5C C44A U54C A65G,0.07
12,A5C G6A A13G A20G A21U C44U U60C,0.07
13,A5C G6A A47G,0.58
14,A5C G6A G7A U78C,0.3
15,A5C G6C U25C U31C U60A,0.08
16,A5C G6U U60C,0.13
17,A5C G7U U31C U41A U72C,0.08
18,A5C G8A A20G A35U U43C,0.06
19,A5C G9A A15G A65G U76C,0.34
20,A5C G9A A35U G55U,0.08
21,A5C G9A A45G,0.11
22,A5C G9U A28U C38U,0.09
23,A5C G9U A35U C38U,0.06
24,A5C G10A A15U,0.1

row,Variant,self-cleavage
1,A5C G10A A21U U31C U54C U72C,0.06
2,A5C G10C A21G U31C U43C U51C A65G,0.07
3,A5C G19C A20G C38A U54C,0.07
4,A5C G19C A56G,0.43
5,A5C G22A U41C U48C U78C,0.07
6,A5C G24C A56G G63C A64G,0.16
7,A5C G24C C50A,0.43
8,A5C G33A A45G U54C U66C,0.16
9,A5C G36C U74C,0.18
10,A5C G36U A47G U51C U72G,0.09
11,A5C U25C A45U,0.41
12,A5C U25C A56G U67C C68A,0.32
13,A5C U26C A28G,0.3
14,A5C U31A G36A C44U U72G U80A,0.05
15,A5C U31C A45U U54C A65G,0.1
16,A5C U31C G36A U69C A75U,0.38
17,A5C U31C U43G U69C,0.4
18,A5C U31C U48G U60A G70A U72C,0.05
19,A5C U41A U48A U74A,0.07
20,A5C U41C A65U U69A,0.26
21,A5C U41C U78C,0.66
22,A5C U43C G46U A56G U66A U78C,0.04
23,A5C U49C U54A,0.17
24,A5C U72C U80C,1.06

row,Variant,self-cleavage
1,A5G A13C U69A U72G,0.05
2,A5G A13C U72G,0.53
3,A5G A13G A18G G33A U41A U80A,0.1
4,A5G A13G A18U U51C A57G A77G,0.19
5,A5G A13G A28U C37A U41C A57G C71A,0.22
6,A5G A13G A28U G36U U72C,0.24
7,A5G A13G A65G U67C U80C,0.28
8,A5G A13G G22C A35G A45G A47U U72C,0.08
9,A5G A13G G36C,0.57
10,A5G A13G G73A U80C,0.8
11,A5G A13G U25G U58G U66C U74A,0.11
12,A5G A13G U26C U72C U80A,0.59
13,A5G A13G U31G A35G A77U,0.08
14,A5G A13G U48C U60C,0.04
15,A5G A13G U49C U51C A56G,0.62
16,A5G A13G U60A,0.11
17,A5G A13G U69A,0.23
18,A5G A13U A15U A21G A47G,0.34
19,A5G A13U A18C U74C U76C,0.23
20,A5G A13U A18U G73U,0.29
21,A5G A13U A20G,0.48
22,A5G A13U A20G A47G U80C,0.69
23,A5G A13U A20U U72A,0.18
24,A5G A13U A21C A45G A64U C81A,0.17

row,Variant,self-cleavage
1,A5G A13U A21G C81U,0.15
2,A5G A13U A21U U66G,0.37
3,A5G A13U A28U,0.78
4,A5G A13U A28U U72C,0.32
5,A5G A13U C27G G55A,0.37
6,A5G A13U G19A A45G A65G,0.07
7,A5G A13U U26C U48A G63A A64C,0.25
8,A5G A13U U41C,0.8
9,A5G A13U U43A G73A,1.07
10,A5G A13U U43C,0.38
11,A5G A13U U54C U72C,0.63
12,A5G A13U U60C C62U A64G,0.23
13,A5G A15C A35U C38U U58C,0.26
14,A5G A15C A35U G61C,0.09
15,A5G A15C C34U A64U A65G U69A U72C,0.08
16,A5G A15C C37G,0.8
17,A5G A15C U48C,0.49
18,A5G A15C U51A G55A A57G,0.16
19,A5G A15G A18C C39A U48C A56G A64G,0.04
20,A5G A15G A18G A45G,0.1
21,A5G A15G A18G A47G,0.1
22,A5G A15G A18G U69C,0.36
23,A5G A15G A20U A45U U58C,0.38
24,A5G A15G A21G A28G U48C U49A A56U,0.3

row,Variant,self-cleavage
1,A5G A15G A28G,0.41
2,A5G A15G A45U U51C A57U U67C,0.17
3,A5G A15G U26C A64U,0.39
4,A5G A15G U26C G42A,0.45
5,A5G A15G U41C U80C,0.55
6,A5G A15G U51C U54A U72C,0.88
7,A5G A15U A28G C34U U78C,0.09
8,A5G A15U A64G,0.28
9,A5G A15U C37G,0.46
10,A5G A15U C39U,0.32
11,A5G A15U C40A G42A U74G A75U,0.06
12,A5G A15U U25A G30U U51C A64U G73A,0.27
13,A5G A15U U25C,0.34
14,A5G A15U U31C A47U U80C,0.08
15,A5G A15U U31C U51A,0.59
16,A5G A15U U41C G55A,0.41
17,A5G A15U U54A U60C,0.2
18,A5G A18G A21G C29G A35G U41C,0.56
19,A5G A18G A21G U67G A77G,0.71
20,A5G A18G A28G,0.3
21,A5G A18G A28G G46U,0.07
22,A5G A18G A75G U80C,0.16
23,A5G A18G C40U U49G A57U G63A,0.11
